Measurements reported in publication PMC3843955 (Antiviral research, 2013).

How the values were obtained:
[1] = test system: HCMV (virus RC2626, luciferase variant of strain Towne); assay: microbe, parasite or virus in culture; settings: Human betaherpesvirus 5, MRC5, 120 h, read-out: Yield inhibition MRC-5 EC50
[2] = test system: HCMV (virus RC2626, luciferase variant of strain Towne); settings: read-out: Yield inhibition MRC-5 EC50, Luciferase-based HCMV yield inhibition assay 5 d after infection, MOI 0.03, ± standard deviation

| SMILES | EC50 [1] [µM] | EC50 [2] [µM] |
| --- | --- | --- |
| Nc1nc(O)c2ncn(COC(CO)CO)c2n1 [GCV, Ganciclovir] | 0.6 ± 0.06 | – |
| NC(=O)NO [HU, hydroxyurea] | – | 221 ± 52 |
| N/C(=N\O)c1cc(O)c(O)c(O)c1 [TX, trimidox] | – | 36 ± 1.7 |
| Nc1nc2c(ncn2COCCO)c(=O)[nH]1 [ACV, Acyclovir] | 24 ± 3.1 | – |
| O=C(NO)c1ccc(O)c(O)c1 [DX, didox] | – | 103 ± 19 |

Where two headings read alike, the source gives them in different places.
